According to the supplement of paper PMC10724272:
MIC of invasive clinical C. tropicalis isolates, CLSI broth microdilution (fluconazole 0.12-256 mg/L, up to 1,024 for the azole-resistant cluster and its neighbour group; other ranges not stated); higher = less susceptible. Call: susceptible or wild type [S] / resistant or non-wild type [R] by CLSI breakpoints or cut-offs; intermediate and dose-dependent carry no call. '<=' and '>=' at the end values are inferred; the source marks only some of them. Isolates are numbered anew.

Each test system was assayed with C[C@@H](c1ncncc1F)[C@](O)(Cn1cncn1)c1ccc(F)cc1F [voriconazole] (assay: CLSI broth microdilution.).
“Candida tropicalis isolate 297 (ERG11 copies: 2, Erg11p: no key change)” gave an MIC of 0.03 mg/L [S]. “Candida tropicalis isolate 10 (ERG11 copies: 2, Erg11p: no key change)” gave an MIC of 0.12 mg/L [S]. “Candida tropicalis isolate 368 (ERG11 copies: 8, Erg11p: Y132F, S154F (heterozygous))” gave an MIC of no less than 8 mg/L [R]. “Candida tropicalis isolate 104 (ERG11 copies: 2, Erg11p: no key change)” was tested, and the MIC was 0.03 mg/L [S]. In the case of “Candida tropicalis isolate 38 (ERG11 copies: 2, Erg11p: no key change)”, the MIC is reported as 0.12 mg/L [S]. For “Candida tropicalis isolate 437 (ERG11 copies: 2, Erg11p: no key change)”, the MIC was no more than 0.008 mg/L [S]. “Candida tropicalis isolate 6 (ERG11 copies: 2, Erg11p: no key change)” was tested, and the MIC was 0.06 mg/L [S]. “Candida tropicalis isolate 328 (ERG11 copies: 2, Erg11p: Y132F, S154F (homozygous))” was tested, and the MIC was 1 mg/L [R]. In the case of “Candida tropicalis isolate 92 (ERG11 copies: 2, Erg11p: no key change)”, the MIC is reported as 0.06 mg/L [S]. “Candida tropicalis isolate 115 (ERG11 copies: 2, Erg11p: no key change)” was tested, and the MIC was 0.12 mg/L [S]. With “Candida tropicalis isolate 141 (ERG11 copies: 2, Erg11p: no key change)” the MIC was 0.12 mg/L [S]. For “Candida tropicalis isolate 2 (ERG11 copies: 6, Erg11p: Y132F, S154F (homozygous))”, the MIC was no less than 8 mg/L [R]. Test System “Candida tropicalis isolate 155 (ERG11 copies: 2, Erg11p: no key change)” has an MIC of 0.12 mg/L [S]. With “Candida tropicalis isolate 279 (ERG11 copies: 8, Erg11p: Y132F, S154F (heterozygous))” the MIC was no less than 8 mg/L [R]. “Candida tropicalis isolate 252 (ERG11 copies: 2, Erg11p: no key change)” was tested, and the MIC was 0.25 µg/mL. “Candida tropicalis isolate 349 (ERG11 copies: 7, Erg11p: Y132F, S154F (heterozygous))” showed an MIC of no less than 8 mg/L [R]. “Candida tropicalis isolate 146 (ERG11 copies: 2, Erg11p: no key change)” gave an MIC of 0.06 mg/L [S]. For “Candida tropicalis isolate 257 (ERG11 copies: 2, Erg11p: no key change)”, the MIC was 0.25 µg/mL. “Candida tropicalis isolate 321 (ERG11 copies: 2, Erg11p: no key change)” showed an MIC of 0.12 mg/L [S]. “Candida tropicalis isolate 412 (ERG11 copies: 2, Erg11p: no key change)” showed an MIC of 0.015 mg/L [S]. In the case of “Candida tropicalis isolate 182 (ERG11 copies: 2, Erg11p: no key change)”, the MIC is reported as 0.12 mg/L [S]. For “Candida tropicalis isolate 89 (ERG11 copies: 2, Erg11p: no key change)”, the MIC was 0.25 µg/mL. “Candida tropicalis isolate 201 (ERG11 copies: 2, Erg11p: Y132F, S154F (heterozygous))” showed an MIC of 1 mg/L [R]. In the case of “Candida tropicalis isolate 169 (ERG11 copies: 2, Erg11p: no key change)”, the MIC is reported as 0.12 mg/L [S]. “Candida tropicalis isolate 398 (ERG11 copies: 2, Erg11p: Y132F, S154F (heterozygous))” showed an MIC of 1 mg/L [R]. Test System “Candida tropicalis isolate 14 (ERG11 copies: 2, Erg11p: no key change)” has an MIC of 0.03 mg/L [S]. “Candida tropicalis isolate 64 (ERG11 copies: 2, Erg11p: no key change)” was tested, and the MIC was 0.03 mg/L [S]. For “Candida tropicalis isolate 245 (ERG11 copies: 2, Erg11p: no key change)”, the MIC was no more than 0.008 mg/L [S]. With “Candida tropicalis isolate 435 (ERG11 copies: 2, Erg11p: no key change)” the MIC was 0.06 mg/L [S]. Test System “Candida tropicalis isolate 4 (ERG11 copies: 2, Erg11p: no key change)” has an MIC of 0.12 mg/L [S]. With “Candida tropicalis isolate 415 (ERG11 copies: 2, Erg11p: no key change)” the MIC was 0.5 µg/mL. “Candida tropicalis isolate 32 (ERG11 copies: 6, Erg11p: Y132F, S154F (heterozygous))” gave an MIC of no less than 8 mg/L [R]. With “Candida tropicalis isolate 295 (ERG11 copies: 2, Erg11p: no key change)” the MIC was 0.12 mg/L [S]. Work on “Candida tropicalis isolate 88 (ERG11 copies: 2, Erg11p: no key change)” yielded an MIC of 0.06 mg/L [S]. “Candida tropicalis isolate 90 (ERG11 copies: 2, Erg11p: no key change)” showed an MIC of 0.06 mg/L [S]. Test System “Candida tropicalis isolate 36 (ERG11 copies: 2, Erg11p: no key change)” has an MIC of 0.12 mg/L [S].

What follows are test systems tested with CCCCCOc1ccc(-c2cc(-c3ccc(C(=O)N[C@H]4C[C@@H](O)[C@@H](O)NC(=O)[C@@H]5[C@@H](O)[C@@H](C)CN5C(=O)[C@H]([C@H](O)CC(N)=O)NC(=O)[C@H]([C@H](O)[C@@H](O)c5ccc(O)c(OS(=O)(=O)O)c5)NC(=O)[C@@H]5C[C@@H](O)CN5C(=O)[C@H]([C@@H](C)O)NC4=O)cc3)no2)cc1 [micafungin] (assay: CLSI broth microdilution.).
In the case of “Candida tropicalis isolate 297 (ERG11 copies: 2, Erg11p: no key change)”, the MIC is reported as 0.03 mg/L [S]. “Candida tropicalis isolate 10 (ERG11 copies: 2, Erg11p: no key change)” gave an MIC of 0.03 mg/L [S]. With “Candida tropicalis isolate 368 (ERG11 copies: 8, Erg11p: Y132F, S154F (heterozygous))” the MIC was 0.06 mg/L [S]. For “Candida tropicalis isolate 104 (ERG11 copies: 2, Erg11p: no key change)”, the MIC was 0.03 mg/L [S]. With “Candida tropicalis isolate 38 (ERG11 copies: 2, Erg11p: no key change)” the MIC was 0.06 mg/L [S]. Work on “Candida tropicalis isolate 437 (ERG11 copies: 2, Erg11p: no key change)” yielded an MIC of 0.015 mg/L [S]. “Candida tropicalis isolate 6 (ERG11 copies: 2, Erg11p: no key change)” was tested, and the MIC was 0.03 mg/L [S]. For “Candida tropicalis isolate 328 (ERG11 copies: 2, Erg11p: Y132F, S154F (homozygous))”, the MIC was 0.03 mg/L [S]. Test System “Candida tropicalis isolate 92 (ERG11 copies: 2, Erg11p: no key change)” has an MIC of 0.03 mg/L [S]. Test System “Candida tropicalis isolate 115 (ERG11 copies: 2, Erg11p: no key change)” has an MIC of 0.06 mg/L [S]. “Candida tropicalis isolate 141 (ERG11 copies: 2, Erg11p: no key change)” showed an MIC of 0.015 mg/L [S]. For “Candida tropicalis isolate 2 (ERG11 copies: 6, Erg11p: Y132F, S154F (homozygous))”, the MIC was 0.03 mg/L [S]. “Candida tropicalis isolate 155 (ERG11 copies: 2, Erg11p: no key change)” gave an MIC of 0.03 mg/L [S]. “Candida tropicalis isolate 279 (ERG11 copies: 8, Erg11p: Y132F, S154F (heterozygous))” was tested, and the MIC was 0.03 mg/L [S]. For “Candida tropicalis isolate 252 (ERG11 copies: 2, Erg11p: no key change)”, the MIC was 0.03 mg/L [S]. Work on “Candida tropicalis isolate 349 (ERG11 copies: 7, Erg11p: Y132F, S154F (heterozygous))” yielded an MIC of 0.03 mg/L [S]. With “Candida tropicalis isolate 146 (ERG11 copies: 2, Erg11p: no key change)” the MIC was 0.03 mg/L [S]. Test System “Candida tropicalis isolate 257 (ERG11 copies: 2, Erg11p: no key change)” has an MIC of 0.03 mg/L [S]. With “Candida tropicalis isolate 321 (ERG11 copies: 2, Erg11p: no key change)” the MIC was 0.03 mg/L [S]. With “Candida tropicalis isolate 412 (ERG11 copies: 2, Erg11p: no key change)” the MIC was 0.015 mg/L [S]. With “Candida tropicalis isolate 182 (ERG11 copies: 2, Erg11p: no key change)” the MIC was 0.03 mg/L [S]. “Candida tropicalis isolate 89 (ERG11 copies: 2, Erg11p: no key change)” gave an MIC of 0.06 mg/L [S]. With “Candida tropicalis isolate 201 (ERG11 copies: 2, Erg11p: Y132F, S154F (heterozygous))” the MIC was 0.03 mg/L [S]. “Candida tropicalis isolate 169 (ERG11 copies: 2, Erg11p: no key change)” showed an MIC of 0.03 mg/L [S]. Test System “Candida tropicalis isolate 398 (ERG11 copies: 2, Erg11p: Y132F, S154F (heterozygous))” has an MIC of 0.03 mg/L [S]. Work on “Candida tropicalis isolate 14 (ERG11 copies: 2, Erg11p: no key change)” yielded an MIC of 0.03 mg/L [S]. “Candida tropicalis isolate 64 (ERG11 copies: 2, Erg11p: no key change)” gave an MIC of 0.03 mg/L [S]. For “Candida tropicalis isolate 245 (ERG11 copies: 2, Erg11p: no key change)”, the MIC was 0.015 mg/L [S]. Test System “Candida tropicalis isolate 435 (ERG11 copies: 2, Erg11p: no key change)” has an MIC of 0.03 mg/L [S]. “Candida tropicalis isolate 4 (ERG11 copies: 2, Erg11p: no key change)” showed an MIC of 0.03 mg/L [S]. With “Candida tropicalis isolate 415 (ERG11 copies: 2, Erg11p: no key change)” the MIC was 0.03 mg/L [S]. “Candida tropicalis isolate 32 (ERG11 copies: 6, Erg11p: Y132F, S154F (heterozygous))” was tested, and the MIC was 0.03 mg/L [S]. Work on “Candida tropicalis isolate 295 (ERG11 copies: 2, Erg11p: no key change)” yielded an MIC of 0.03 mg/L [S]. “Candida tropicalis isolate 88 (ERG11 copies: 2, Erg11p: no key change)” was tested, and the MIC was 0.015 mg/L [S]. In the case of “Candida tropicalis isolate 90 (ERG11 copies: 2, Erg11p: no key change)”, the MIC is reported as 0.03 mg/L [S]. With “Candida tropicalis isolate 36 (ERG11 copies: 2, Erg11p: no key change)” the MIC was 0.06 mg/L [S].

The test systems below were run with CCC(C)n1ncn(-c2ccc(N3CCN(c4ccc(OCC5COC(Cn6cncn6)(c6ccc(Cl)cc6Cl)O5)cc4)CC3)cc2)c1=O [itraconazole] (assay: CLSI broth microdilution.).
In the case of “Candida tropicalis isolate 297 (ERG11 copies: 2, Erg11p: no key change)”, the MIC is reported as 0.06 mg/L [S]. “Candida tropicalis isolate 10 (ERG11 copies: 2, Erg11p: no key change)” was tested, and the MIC was 0.25 mg/L [S]. For “Candida tropicalis isolate 368 (ERG11 copies: 8, Erg11p: Y132F, S154F (heterozygous))”, the MIC was 1 mg/L [R]. With “Candida tropicalis isolate 104 (ERG11 copies: 2, Erg11p: no key change)” the MIC was 0.03 mg/L [S]. “Candida tropicalis isolate 38 (ERG11 copies: 2, Erg11p: no key change)” showed an MIC of 0.25 mg/L [S]. In the case of “Candida tropicalis isolate 437 (ERG11 copies: 2, Erg11p: no key change)”, the MIC is reported as 0.03 mg/L [S]. Work on “Candida tropicalis isolate 6 (ERG11 copies: 2, Erg11p: no key change)” yielded an MIC of 0.12 mg/L [S]. Test System “Candida tropicalis isolate 328 (ERG11 copies: 2, Erg11p: Y132F, S154F (homozygous))” has an MIC of 0.12 mg/L [S]. Work on “Candida tropicalis isolate 92 (ERG11 copies: 2, Erg11p: no key change)” yielded an MIC of 0.12 mg/L [S].
